Data from publication PMC12136788.
The other results are listed elsewhere or left out.

T1: UNK ZnF1-3 (human, UniProt Q9C0B0 31-174)
T1 sequence: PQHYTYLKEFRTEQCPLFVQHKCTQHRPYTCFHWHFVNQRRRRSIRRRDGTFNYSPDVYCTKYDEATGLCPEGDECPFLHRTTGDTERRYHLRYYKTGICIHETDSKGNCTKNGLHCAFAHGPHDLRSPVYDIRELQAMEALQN

B1: 183676287_183676407_4950_CDS_ENSG00000218336_ENST00000511685|human|control|control (ssRNA)
RNA: GGGAGUUCUACAGUCCGACGAUCAAACGUUGUCCAUCCAGUUUCAUCACUUUUAGUGGCUAAAAGGCCACUAUUGCCAUGGUAAGUAAACAAAACUAAUUCCAGUCCUUGAGCAGUCAUGCUUUUCAAACAUCCAUUUGUUCCCAACAGAGGAUUGAGCAUCA
B2: chr2:104630212:104630213:-_ENSMUSG00000074994_ENSMUST00000117237|mus_hu|motif|central (ssRNA)
RNA: GGGAGUUCUACAGUCCGACGAUCUGUAGUGUUAAAAGUUGAAUCCUGAAGCACCAAAGGUGAAGUGGUAGCAAAGUUUCGGUUGCUGAAGGUGGUGGGAUGCUGAUAAGCAGAGAGAGAUGGUGGAAGUGUUCCAGUGCUUGGCAACAGAGGAUUGAGCAUCA
B3: 99633858_99633978_4024_3pUTR_ENSG00000106261_ENST00000324306|human|control|control (ssRNA)
RNA: GGGAGUUCUACAGUCCGACGAUCUUGAAGAAAAUCCUUAAAACAUUUUCUGCCUCCAUUUUAGUUACUUAGAUAUACUCUUCUGGAGUAAUGGGUUUUUCUUCCGUUGCAUGGGUAGAAAUAUCCUAGUGACUGGUUGACUUGCAACAGAGGAUUGAGCAUCA
B4: 143722256_143722376_295_CDS_ENSMUSG00000029581_ENSMUST00000031565|mouse|control|control (ssRNA)
RNA: GGGAGUUCUACAGUCCGACGAUCCUCGCGCUCGCAGGUCACGUUGCCGUCCUUGUCGGCGGCCAGGUAGCGACCCAGGUGGCUGCGCAGACACACGGCCGCGCUGCCCGCCUCAUCGGGAGGUUGCUCCAGCGUCCAGAUCUGCAACAGAGGAUUGAGCAUCA
B5: chr11:20126016:20126017:+_ENSMUSG00000020149_ENSMUST00000020358|mus_mus|motif|central (ssRNA)
RNA: GGGAGUUCUACAGUCCGACGAUCGGGAAAAAAGCCAGGCGUGGCGGCGCACACCUUCAGUCUCAGCACUCAGAGACAGAGCGGGGUGGAUCCCUGAGUUCGAGGCCAGCCUGGUCUACAGAGAGAGUUCCAGGACAGCCAGGGCAACAGAGGAUUGAGCAUCA
B6: chr18:35832659:35832660:-_ENSMUSG00000024350_ENSMUST00000025208|mus_mus|FALSE|FALSE (ssRNA)
RNA: GGGAGUUCUACAGUCCGACGAUCAGCCUGGUCUACAGUGAGUUCCAGGACAGCCAGGGCUACAUAAAAUUAAAAAUUUAAAACAAAACAACAAAACCCAAACAAUCAAGAAGUUGUUCAAGGUUUUUGACUGUAUAUGAAUUUCAACAGAGGAUUGAGCAUCA
B7: 69548568_69548688_5610_CDS_ENSMUSG00000005198_ENSMUST00000058470|mouse|control|control (ssRNA)
RNA: GGGAGUUCUACAGUCCGACGAUCACUAGUUGGAGAAUAGUUAGGGCUGGUGGGUGAGUAGCUUGGAGAAGUUGGUGAGUAGCUUGGAGAAGUUGGUGAGUAGCUGGGAGAUGUCGGUGAGUAGCUGGGGGAGGUGGGAGAAUACAACAGAGGAUUGAGCAUCA
B8: chr4:76721835:76721836:+_ENSG00000138768_ENST00000264904|hu_mus|hu_hu_hu_mus_True|1_18 (ssRNA)
RNA: GGGAGUUCUACAGUCCGACGAUCGUUUGGCUGGGGUUUCUGAGACGCUCUGGAAUAUAACUCAUGUUUGCUAAUAAAUCCUAGUUUCUCUAUGAAAUUCUCUUUGCCAAUCCUCUUUCAAUCAGUUUGCUUUAGUUCUCUUUCCAACAGAGGAUUGAGCAUCA
B9: chr9:42776281:42776282:-_ENSMUSG00000059495_ENSMUST00000165665|mus_hu|motif|central (ssRNA)
RNA: GGGAGUUCUACAGUCCGACGAUCUCUUUACCCACUCCCAUCCCACCCUUUCCUUAGCAACCCCCACCCCUGCCACGGUCCGAAGCAUUUCCAUUUGUUUUUACUUCCUGCUCAAUCUGCAGGGACAGUUUUACACAAGUGCCACAACAGAGGAUUGAGCAUCA
B10: 111654399_111654519_7874_CDS_ENSG00000009413_ENST00000368805|human|control|control (ssRNA)
RNA: GGGAGUUCUACAGUCCGACGAUCUGAUUGGAAAUCCAAAACGAGAACAGAGUUGCUAUAGAAGCGGGAUUCAGGCUCCAUAAUUAGAGGAACACACUGUGGGGCUCUCAUCUGGGAUCUUUGCUGAACACUAGGUGUCACAGGCAACAGAGGAUUGAGCAUCA
B11: chr1:163112212:163112213:-_ENSG00000143248_ENST00000313961|hu_hu|hu_hu_hu_mus_False|1_58 (ssRNA)
RNA: GGGAGUUCUACAGUCCGACGAUCUUUUAUUAUCAGUAAGAGUGAGUUACAUACUAGGCAAAGUAUUGGAUACAAUAUUCUAAAGAUAAACACUAUUGGUCCAGAAUUUAAAACUUUAUGAGCGAAGUGCUGGCACAGGAUUUACAACAGAGGAUUGAGCAUCA
B12: chr1:120316390:120316391:+_ENSMUSG00000064302_ENSMUST00000049404|mus_hu|motif|central (ssRNA)
RNA: GGGAGUUCUACAGUCCGACGAUCUAACAUGGUCUGGUCAUGCUCAAGGUCAGCAGACUUCUGUUUGUCUGAGAAAUAGUCGGUCAGUUCUUGGCCAACCUGCAAUCGUUUCCCCACAUCCUUCUGCAACACCUGCGCCAGGCACAACAGAGGAUUGAGCAUCA
B13: 55057885_55058289_1828_CDS_ENSMUSG00000025982_ENSMUST00000027127|mouse|control|control (ssRNA)
RNA: GGGAGUUCUACAGUCCGACGAUCUUCCACUCUAGCAUAGUAAUCUUCAUCAAUCAACAGUGGCUCGAUAACCACAAGAAUCUUGUGCACAUACGGCCGCACCAAGUCAUCAAGUUUAUACAAUAUUCUAUCAAUAACUUUCACCAACAGAGGAUUGAGCAUCA
B14: chr8:121473430:121473431:+_ENSG00000172167_ENST00000305949|hu_hu|FALSE|FALSE (ssRNA)
RNA: GGGAGUUCUACAGUCCGACGAUCAAUAUCCGACAUAUAGCAGGAGGGUAGAUCUGAUAAUUUUAUCAUCUGCACAAAUUCUAAAGCAGGGCCAUAAUAAUGGAAAACCUUUGGCAAAAUAUUCUUAUCCUUUGAUGGUAUGAUCAACAGAGGAUUGAGCAUCA
B15: chr12:39756943:39756944:-_ENSG00000139116_ENST00000544797|hu_mus|hu_hu_hu_mus_False|58_98 (ssRNA)
RNA: GGGAGUUCUACAGUCCGACGAUCGGUUUGGCUGUUACCCCCGAGGGAAUCCUGCAAGAGUCUUGUCAGCUUAGAGUCUCUAUAGGGGACAUGGGUGGCUCUCUUGCUCUUGUCCCCCAAGGCGCUGAUUACAUUCCCAAGAGCCAACAGAGGAUUGAGCAUCA
B16: chr4:109034340:109034341:+_ENSMUSG00000028552_ENSMUST00000102729|mus_mus|FALSE|FALSE (ssRNA)
RNA: GGGAGUUCUACAGUCCGACGAUCUUCUUCUCUAGCUUUCAACAGUUCUUCCUCAUAACUGGAGAUCUGAGAUUCUUGACUAGUUAUUUCUGCUUUCAGGGAAGAAAUCAGCUGGGCCUCCUCAGCACACUUUUUCCUGACUUCCAACAGAGGAUUGAGCAUCA
B17: chr2:61719535:61719536:-_ENSG00000082898_ENST00000401558|hu_hu|FALSE|FALSE (ssRNA)
RNA: GGGAGUUCUACAGUCCGACGAUCGUUAACUACAGUCUUCAGAAAUUUCCAGUGAGCUCUCAAAAAACGUGGGUAUUGACCUACUAUGUACAUGAUAUUUGAUGCAAUAAUAGCUUUAUUAUCUUUGCCUCUUUUCUGUUCACACAACAGAGGAUUGAGCAUCA
B18: 109687111_109687231_1267_CDS_ENSG00000148143_ENST00000277225|human|control|control (ssRNA)
RNA: GGGAGUUCUACAGUCCGACGAUCCAUCUGAGGGUAAGACAUGGGCGAAAACUUGGAAGCUGAAGAAUUGGGUCUCAUGAUGGAGUUGCCCAUGGAGCCCCUGAAGUUGGAGACGGUAGUAUUGGGUAUCUCCCGGCUUGCAGCCAACAGAGGAUUGAGCAUCA
B19: chr7:56126341:56126342:+_ENSG00000146731_ENST00000540286|hu_mus|hu_hu_hu_mus_True|68_98 (ssRNA)
RNA: GGGAGUUCUACAGUCCGACGAUCCAUGUUUCUCCUCUUAGCUCUGCGCAGAGCUACGAUCCCUUCUUUUGAAAGAGCAUCUAAGGAAAAGGGGUCAAUCCCCUUUUGAUUAAUAACGACAAAUCCUUUAUCUGAGUCACCACACAACAGAGGAUUGAGCAUCA
B20: chr7:141441981:141441982:+_ENSG00000106028_ENST00000265304|hu_mus|hu_hu_hu_mus_False|28_78 (ssRNA)
RNA: GGGAGUUCUACAGUCCGACGAUCCUCAUGUCUUACAAACUGACGAAAUACCUGUAAUACAGGUCUUCGAAACAUGGCUUCUGUUUUUCUUACAACCUAAUCUUUAGUUAGGCUUUUAAGGAAAGAAAGAAAAGAGAAAAAUGACAACAGAGGAUUGAGCAUCA
B21: chr1:137281999:137282000:-_ENSMUSG00000041879_ENSMUST00000161189|mus_mus|FALSE|FALSE (ssRNA)
RNA: GGGAGUUCUACAGUCCGACGAUCUUAGAUGCCGAUAGUCUGUAGGACCCGCCUCUCGUUGUCGUUAAGGUGGCAUGAAAACAUUAUGUAACAGGGCUGCUGAGCAAACUGGCAAAGGAAGUCUGUGAGAUACGCCUGCAGAUCCAACAGAGGAUUGAGCAUCA
B22: chr7:75932113:75932114:+_ENSG00000106211_ENST00000248553|hu_hu|hu_hu_hu_mus_False|48_58 (ssRNA)
RNA: GGGAGUUCUACAGUCCGACGAUCCUGCGACCACUCAUCGGGCAACCGGGGCACCCCGAAAGCUUGAUCGAAGAGGCGGCUAUGCGGGUACCAGUCGUCCCGGAAUGGUUCCCAGCUCGGGCUCCGCAGCAGCGAGAAGGGCACCAACAGAGGAUUGAGCAUCA

The binders below were run against T1, UNK ZnF1-3 (assay: nsRBNS (natural sequence RNA bind-n-seq); RBNS binding buffer (assumed for nsRBNS): 25 mM Tris pH 7.5, 150 mM KCl, 3 mM MgCl2, 0.01% Triton X-100, 500 ug/ml BSA, 20 U/ml SUPERase-In, 4 C; UNK is unkempt and MSI1 is Musashi-1; names of the RNAs are library labels; protein concentration not given here; high values mean tight binding).

Binder	binding signal [enrichment R]
B1	1.16
B2	2.37
B3	0.727
B4	0.562
B5	0.833
B6	2.25
B7	1.72
B8	0.46
B9	0.739
B10	1.05
B11	1.29
B12	0.668
B13	1.09
B14	1.35
B15	0.861
B16	0.686
B17	0.7
B18	1.35
B19	1.33
B20	0.566
B21	1.61
B22	0.646
